In PMC2362091, “Expression of V1A and GRP receptors leads to cellular transformation and increased sensitivity to substance-P analogue-induced growth inhibition” (British Journal of Cancer, 2005) one finds Kd data, which are given here for one molecule.

The assay deals with GRP (Homo sapiens), P07492. In words: competition.

As usually defined, the Kd is a measure of binding affinity in units of concentration. Read a low Kd as tighter binding.

GRP (Homo sapiens), P07492, sequence (P07492 24-50): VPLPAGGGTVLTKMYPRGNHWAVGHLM

B1: GRP receptor, P30550 (protein)
chain: MALNDCFLLNLEVDHFMHCNISSHSADLPVNDDWSHPGILYVIPAVYGVIILIGLIGNITLIKIFCTVKSMRNVPNLFISSLALGDLLLLITCAPVDASRYLADRWLFGRIGCKLIPFIQLTSVGVSVFTLTALSADRYKAIVRPMDIQASHALMKICLKAAFIWIISMLLAIPEAVFSDLHPFHEESTNQTFISCAPYPHSNELHPKIHSMASFLVFYVIPLSIISVYYYFIAKNLIQSAYNLPVEGNIHVKKQIESRKRLAKTVLVFVGLFAFCWLPNHVIYLYRSYHYSEVDTSMLHFVTSICARLLAFTNSCVNPFALYLLSKSFRKQFNTQLLCCQPGLIIRSHSTGRSTTCMTSLKSTNPSVATFSLINGNICHERYV
Take B1: the Kd amounted to 2.55 nM.
